# Laboratory results: the supplement of paper PMC11417369
# ± gives the standard deviation of the averaged measurements. Some of the results follow.
# Tested on: PfAP2-LT AP2 domain (GST-tagged)
# Test: gcPBM binding intensity (ln(normalized median fluorescence intensity)); higher = stronger DNA binding
# In short: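 GST-fused DNA-binding domains of P. falciparum, expressed in E. coli, were applied at about 25 μg on average for 1 h to an Agilent 4 × 180k array of primer-extended double-stranded 36-bp intergenic genomic probes and negative controls. Binding intensity is the highest Masliner-normalised natural-log median intensity across replicate spots of either probe orientation, measured with Alexa488 anti-GST antibody and a 488 nm scan.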
row,Sequence,gcPBM binding intensity (ln)
1,TGTCATTCCTCTTATTGTACAAAAATATTATAATAT [XGTACX_site1134],8.67 ± 0.42
2,TGTTATTAGAAAAATGCACACCAAAAAAAAAAAAAA [CACACA_site8802],8.7 ± 0.51
3,ATATACATAATATATAATATAAATATATATATGGAA [CACACA_negctrl_site906],8.75 ± 0.42
4,GCTATAAATACAGACGCACACATATACATACAGATA [CACACA_site5778],9.33 ± 0.42
5,TAATTAATTTACATTTTAATTTTATACAAAATTTAT [CACACA_negctrl_site830],8.3 ± 0.53
6,ACATATTTATATTCTACACACTTATACTATAATACA [CACACA_site7204],8.96 ± 0.4
7,ATGGAACTTAAAAATTGTACACATAAAATGGAGAAG [XGTACX_site1823],8.88 ± 0.47
8,GTTATACGCATCAACACACACATACAACGTGGTGTA [CACACA_site1188],9.15 ± 0.3
9,TGGTAATATCGATTCACACATATCAAAATAAAAAAA [CACACA_site4196],8.71 ± 0.45
10,TAGGAGAAAAAAAAAAGTACCCACAACTATTATACT [XGTACX_site8195],8.93 ± 0.4
11,AACATATTAATGTACACACACCCACGCACAAACAAA [CACACA_site7320],9.765 ± 0.092
12,TATATATATTAACTTGTGCGCAAAAAGATATAATTT [GTGCAC_site9672],8.91 ± 0.31
13,AATATTTTGATGTGTACACATTAATACAGTTTTACA [CACACA_site5711],8.9 ± 0.35
14,AAGAAATAAAAAAAACGTACATATATACATACATAC [XGTACX_site3980],8.91 ± 0.42
15,ATATGTATGTATGTCTCAAAATTTCATATTATATTA [CACACA_negctrl_site784],8.62 ± 0.43
16,TAGGATATTGAATAATGTACTTTATATATAATATAA [XGTACX_site7828],8.38 ± 0.45
17,AATATATATATTAAATGTACATTACATAATTATATA [XGTACX_site3450],8.61 ± 0.48
18,TTTTTTTTTTTAGACACATGCATTTTTATAATTTTC [TGCATGCA_site843],8.7 ± 0.53
19,TGCAACAAAATAAACACACACACACTAGCACAAAAA [CACACA_site5805],9.99 ± 0.14

row,Sequence,gcPBM binding intensity (ln)
1,TAAATGAAAATATGTACACACTTGAAAACTTTTATG [CACACA_site7388],8.87 ± 0.43
2,TTGAATTATAAGAATAAACACACAAGCTTAAAAAAA [CACACA_site8318],8.71 ± 0.54
3,GAATTATAAATTATAGTGCATAAAATTATGGCATAA [GTGCAC_site9938],8.69 ± 0.47
4,TCAAAACATTATTCCATACACACCATACTTTTTAAT [CACACA_site2770],8.89 ± 0.43
5,CCCACAGACGGACACACACACATATATATATATATA [CACACA_site4351],10.4 ± 0.22
6,TATTTAAATTTGTATAATGGACGAATTATATAGAAA [GTGCAC_negctrl_site650],8.38 ± 0.49
7,TTAATAATAAAAAGGAGTACACTAATATACTATAAA [XGTACX_site2346],8.65 ± 0.52
8,TTAAGAAACAAAGAAAGTACACAACATAATATAGAA [XGTACX_site477],8.92 ± 0.49
9,ATATAATATATATATAAACACACAAAAAAAATTATA [CACACA_site8434],8.97 ± 0.45
10,AATAAAATCATCTATACACACAAAAAAAATAAGAAA [CACACA_site2101],8.93 ± 0.47
11,CCTCATAAGTTCTTATGTACGTATTGTTCACCTTTA [XGTACX_site6640],8.9 ± 0.49
12,CTGTAAAAAATATAAACACACATAGAAATATATAAA [CACACA_site340],8.97 ± 0.49
13,TACAACCTTATAATTAGTACTTAGTTATGCTGTAAA [XGTACX_site6052],8.61 ± 0.43
14,TTTATTTGTGCATATACACACTTAAATATGTTTATT [CACACA_site7772],9 ± 0.45
15,TTTAATTTTTTTTATAGTACATAAAAAATAAAAAAA [XGTACX_site5631],8.11 ± 0.43
16,ATTATAATACTTTGTATGCACTAATCAATTATTAAA,8.47 ± 0.43
17,CCGATATAATGGAAAACACACAAAAGATATTTATAT [CACACA_site7293],8.94 ± 0.48
18,ACATAAAATTGGAGCAAACACACAAGGTTGAAATTA [CACACA_site505],9.05 ± 0.51
19,TTTGTTATGGTTTTCTCACACATATATATATATATA [CACACA_site4617],9.36 ± 0.014

row,Sequence,gcPBM binding intensity (ln)
1,TTATGTTGTAAATGCACACATACAAATACATATACA [CACACA_site1368],9.06 ± 0.25
2,TACAATATAAAATACACACGCACACCGAAAAAAAAA [CACACA_site5865],9.52 ± 0.28
3,TTTTCTATATAGTGTTGTACATTATTGTGTAAAAAT [XGTACX_site3223],8.7 ± 0.46
4,ATATTTTATACTTGCACACAAAATATATTAAAATGG [CACACA_site5139],8.86 ± 0.35
5,ATAAAATTGGAGCAAACACACAAGGTTGAAATTAAC [CACACA_site506],9.12 ± 0.56
6,TATATGGTATGTATTACACACATATCACATATATAT [CACACA_site3045],9.28 ± 0.33
7,TGGTAAATTGAGAATCGTACATTAAAAAACATAAAA [XGTACX_site3253],8.62 ± 0.49
8,GGAATGGTACATGATACACACACGCACATATAAATA [CACACA_site7581],9.48 ± 0.48
9,ATTTATTAAAAGAAATGTACAGAAAATGTTTGGAAT [XGTACX_site7187],8.79 ± 0.38
10,AAGAAAAAAAAGATAATAATAATAATAATAAAATGA [TGCATGCA_negctrl_site398],8.71 ± 0.45
11,ATTTAATATCACAATATATTTTTTACCCTTATCAGC [CACACA_negctrl_site491],8.63 ± 0.59
12,TTTTTTTCATAAATTAGGTAATGTCGCAGGGGGACA [TGCATGCA_negctrl_site556],9.09 ± 0.12
13,AAAGAATTGTATAAAAGTACATATTTGTTTGTTTTA [XGTACX_site7380],8.62 ± 0.5
14,TAAAAAATAAAATACACACACATATATATATATATA [CACACA_site1323],9.9 ± 0.057
15,TATATTCTTTTTTTAACACACAAAAAAAATAAAATA [CACACA_site1898],8.38 ± 0.31
16,GAGGGAAAAAATAATCGTACAAAGAAAAAAAAAAAT [XGTACX_site7361],9.05 ± 0.59
17,AAAAAAATTAAAGATTGTACTTGATTTTTCATTTTA [XGTACX_site6685],8.4 ± 0.44
18,AGTAGTATGGAGAAAAGTACATAGTATCTGATAACC [XGTACX_site2040],8.98 ± 0.54
